According to the supplement of paper PMC3334620:
In all, about 33,000 sequences were measured (“E-score (-0.5 to 0.5)”: median about -0.012, highest 2% from about 0.29 on). The list shows a part of the results.

These sequences were tested against T1, Ybr033w (UniProt P38073) (assay: PBM E-score (8-mer binding enrichment) (E-score (-0.5 to 0.5)); higher = stronger / more preferred TF binding; most listed sequences are background and not binding sites). Conditions: protein concentration: 200 nM; construct: GST-full length.
T1 sequence: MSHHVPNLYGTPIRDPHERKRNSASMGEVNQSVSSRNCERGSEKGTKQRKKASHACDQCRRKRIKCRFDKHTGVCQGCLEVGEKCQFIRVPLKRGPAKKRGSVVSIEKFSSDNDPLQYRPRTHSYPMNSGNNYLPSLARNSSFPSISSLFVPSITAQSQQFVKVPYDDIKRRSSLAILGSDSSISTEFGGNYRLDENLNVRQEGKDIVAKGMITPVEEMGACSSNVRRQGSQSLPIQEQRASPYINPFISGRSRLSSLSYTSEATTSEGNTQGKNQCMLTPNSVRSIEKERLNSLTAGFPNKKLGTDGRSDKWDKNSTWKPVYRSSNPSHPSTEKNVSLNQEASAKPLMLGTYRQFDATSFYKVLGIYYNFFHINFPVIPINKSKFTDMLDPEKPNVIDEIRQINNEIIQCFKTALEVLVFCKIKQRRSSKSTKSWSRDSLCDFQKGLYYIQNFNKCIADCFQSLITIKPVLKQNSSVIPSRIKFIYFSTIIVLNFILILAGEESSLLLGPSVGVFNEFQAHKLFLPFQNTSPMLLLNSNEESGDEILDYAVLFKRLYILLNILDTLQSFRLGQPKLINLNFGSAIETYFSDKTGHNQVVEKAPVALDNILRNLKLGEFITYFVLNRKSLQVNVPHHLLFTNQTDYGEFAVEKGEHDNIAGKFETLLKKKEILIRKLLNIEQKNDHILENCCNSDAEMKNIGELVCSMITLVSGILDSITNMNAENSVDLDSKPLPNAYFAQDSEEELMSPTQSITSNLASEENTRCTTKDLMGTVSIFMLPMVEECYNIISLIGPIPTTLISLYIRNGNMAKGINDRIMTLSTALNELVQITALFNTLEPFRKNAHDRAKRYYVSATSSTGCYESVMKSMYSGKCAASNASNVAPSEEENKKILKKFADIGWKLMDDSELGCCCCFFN
Procedure, shortened: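 Using PURExpress in vitro transcription/translation, GST-tagged yeast transcription factors were made in full-length or DNA-binding-domain form. These were applied at about 100-200 nM to double-stranded universal all-10-mer Agilent arrays, and bound protein was detected with fluorescent anti-GST. Scans were normalised with masliner before the Universal PBM Analysis Suite assigned E-scores to ungapped eight-base words pooled with their reverse complements.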

Row | Sequence | PBM E-score
1 | GGAACAAA | 0.45
2 | GTAGGACA | 0.012
3 | CCGACGGA | -0.0926
4 | CATTTGAC | 0.0203
5 | ACGGCAAT | 0.206
6 | CTTGAGCA | -0.212
7 | CTCGTGCA | 0.0586
8 | CGGAATCC | -0.0202
9 | AATCCATA | 0.139
10 | CGCGATAC | -0.169
11 | ACAACGGG | -0.0461
12 | GCTTACTA | 0.0994
13 | AGAATCAC | -0.0247
14 | CCACGTCG | -0.196
15 | ACTCACCG | -0.0441
16 | CCAGGCTA | -0.304
17 | CGACTAGA | -0.0452
18 | ACCAGGAC | -0.0574
19 | ACAAGAAA | 0.206
20 | AGAATGAG | 0.178
21 | AGGCGAGA | -0.184
22 | CGTAGGAC | -0.112
23 | CCTTTCTA | 0.071
24 | GACACAAA | 0.0738

Row | Sequence | PBM E-score
25 | ATCTGTTG | -0.0271
26 | TGAGACCA | -0.104
27 | CACGTTAA | 0.0341
28 | GCGCTATA | 0.152
29 | AGCTGCGG | -0.223
30 | ACAGATCG | -0.0216
31 | AAGCCTAG | -0.032
32 | CTGCACGC | -0.282
33 | AAAGCTCA | 0.115
34 | AGACAATC | 0.0819
35 | AGTCCCGG | -0.338
36 | CTTAACAA | 0.152
37 | GAAACCCA | 0.212
38 | ACAATGGG | 0.154
39 | GCGCTCAC | -0.0712
40 | CGTCTGTA | -0.11
41 | AGTATAAA | 0.266
42 | ATGGGCAC | -0.096
43 | AGGATGAA | 0.187
44 | GAGCGGGC | -0.275
45 | CTAGGACC | -0.306
46 | AGTAGAGA | -0.0766
47 | CCCGACAA | 0.0665
48 | TACCGGAA | 0.27

Row | Sequence | PBM E-score
49 | CTCGGTAC | -0.157
50 | CCCGCGTA | -0.135
51 | ACTCAACC | 0.12
52 | GCCGGCCA | -0.0303
53 | ACCCCAAT | -0.235
54 | AATTCCGG | 0.154
55 | AGTCAGTC | -0.176
56 | GAGCTAAC | 0.0972
57 | CCCATCCA | -0.158
58 | CGATGCCG | -0.278
59 | CGAGCGGC | 0.0102
60 | CAAAGCAA | 0.0872
61 | GCTCCTCA | -0.246
62 | ATAATTTC | 0.314
63 | AGTCAGTA | 0.118
64 | ATCCTATC | 0.153
65 | GTGAGACA | -0.0622
66 | GCCAAACC | -0.233
67 | AGTCCTTC | -0.261
68 | ATAGGAAA | 0.25
69 | CCGAAGAA | 0.0583
70 | ACGAACCC | -0.0974
71 | TATACTCA | 0.156
72 | TCGGACAA | 0.205

Row | Sequence | PBM E-score
73 | ATGGTCCA | -0.176
74 | GACATCGC | -0.225
75 | ATAAGGTG | 0.0884
76 | CGTGCATA | -0.00113
77 | TTAGATAA | 0.218
78 | CCCCATCC | -0.119
79 | CACAAAAC | 0.235
80 | GAATTATC | 0.305
81 | AATCACGA | -0.272
82 | CAACAGTC | -0.0223
83 | CGGTTTCC | -0.0941
84 | CTCGTATC | 0.0502
85 | AGGTACAT | 0.0626
86 | CCCTAGGA | -0.2
87 | TCTGTCAA | 0.0913
88 | CTGTCTGA | -0.197
89 | ATGTCCGC | -0.0425
90 | AGTGCTAC | -0.0555
91 | CAATAACA | 0.066
92 | CCAAGGAC | -0.181
93 | CAAGCTGC | -0.186
94 | AGAATTGC | 0.124
